# Reference: the supplement of paper PMC8728848
# The other results are listed elsewhere or left out.
# B1: Spy0252 (Streptococcus pyogenes), Q9A1I9_STRP1 (protein)
# chain: MNMKKLASLAMLGASVLGLAACGGKSQKEAGASKSDTAKTEITWWAFPVFTQEKAEDGVGTYEKKLIAAFEKANPEIKVKLETIDFTSGPEKITTAIEAGTAPDVLFDAPGRIIQYGKNGKLADLNDLFTEEFTKDVNNDKLIQASKAGDTAYMYPISSAPFYMALNKKMLKDAGVLDLVKEGWTTDDFEKVLKALKDKGYNPGSFFANGQGGDQGPRAFFANLYSSHITDDKVTKYTTDDANSIKAMTKISNWIKDGLMMNGSQYDGSADIQNFANGQTSFTILWAPAQPGIQAKLLEASKVDYLEIPFPSDDGKPELEYLVNGFAVFNNKDEQKVAASKTFIQFIADDKEWGPKNVVRTGAFPVRTSYGDLYKDKRMEKIAEWTKFYSPYYNTIDGFAEMRTLWFPMVQAVSNGDEKPEDALKAFTEKANKTIKKTQ
# How the values were obtained:
# Experiment in all cases: glycan array binding signal (z-score within array); higher = stronger binding
# Conditions in all cases: glycan notation: IUPAC condensed, linker removed
# Fuc(a1-2)Gal = target: Fuc(a1-2)Gal
# In short: (§1)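 Glycan array data came from 3228 arrays in the Consortium for Functional Glycomics database, and only arrays with an available protein sequence were kept. Glycan names were put into IUPAC-condensed notation, and columns mapping to the same glycan were averaged. The binding signal is a within-array Z-score, averaged across arrays of one protein sequence run at different concentrations or buffers and across linkers. A negative Z-score can be read as non-binding.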
# Fuc(a1-2)Gal(b1-3)GalNAc = target: Fuc(a1-2)Gal(b1-3)GalNAc
# In short: as §1
# [1] = target: Fuc(a1-2)Gal(b1-3)GalNAc(b1-3)Gal
# In short: as §1
# [2] = target: Fuc(a1-2)Gal(b1-3)GalNAc(b1-3)Gal(a1-4)Gal(b1-4)Glc
# In short: as §1
# [3] = target: Fuc(a1-2)Gal(b1-3)GalNAc(b1-4)[Neu5Ac(a2-3)]Gal(b1-4)Glc
# In short: as §1
# Fuc(a1-2)Gal(b1-3)GlcNAc = target: Fuc(a1-2)Gal(b1-3)GlcNAc
# In short: as §1
# [4] = target: Fuc(a1-2)Gal(b1-3)GlcNAc(b1-2)Man(a1-3)[Fuc(a1-2)Gal(b1-3)GlcNAc(b1-2)Man(a1-6)]Man(b1-4)GlcNAc(b1-4)GlcNAc
# In short: as §1
# [5] = target: Fuc(a1-2)Gal(b1-3)GlcNAc(b1-3)Gal(b1-4)Glc
# In short: as §1
# [6] = target: Fuc(a1-2)Gal(b1-3)GlcNAc(b1-3)[Gal(b1-4)[Fuc(a1-3)]GlcNAc(b1-6)]Gal(b1-4)Glc
# In short: as §1
# [7] = target: Fuc(a1-2)Gal(b1-3)[Fuc(a1-4)]GlcNAc
# In short: as §1
# [8] = target: Fuc(a1-2)Gal(b1-3)[Fuc(a1-4)]GlcNAc(b1-2)Man(a1-3)[Fuc(a1-2)Gal(b1-3)[Fuc(a1-4)]GlcNAc(b1-2)Man(a1-6)]Man(b1-4)GlcNAc(b1-4)GlcNAc
# In short: as §1
# Fuc(a1-2)Gal(b1-4)Glc = target: Fuc(a1-2)Gal(b1-4)Glc
# In short: as §1
# Fuc(a1-2)Gal(b1-4)Glc6S = target: Fuc(a1-2)Gal(b1-4)Glc6S
# In short: as §1
# Fuc(a1-2)Gal(b1-4)GlcNAc = target: Fuc(a1-2)Gal(b1-4)GlcNAc
# In short: as §1
# [9] = target: Fuc(a1-2)Gal(b1-4)GlcNAc(b1-2)Man(a1-3)[Fuc(a1-2)Gal(b1-4)GlcNAc(b1-2)Man(a1-6)]Man(b1-4)GlcNAc(b1-4)GlcNAc
# In short: as §1
# [10] = target: Fuc(a1-2)Gal(b1-4)GlcNAc(b1-3)Gal(b1-4)GlcNAc
# In short: as §1
# [11] = target: Fuc(a1-2)Gal(b1-4)GlcNAc(b1-3)Gal(b1-4)GlcNAc(b1-3)Gal(b1-4)GlcNAc
# In short: as §1
# [12] = target: Fuc(a1-2)Gal(b1-4)GlcNAc6S
# In short: as §1
# [13] = target: Fuc(a1-2)Gal(b1-4)[Fuc(a1-3)]GlcNAc
# In short: as §1
# [14] = target: Fuc(a1-2)Gal(b1-4)[Fuc(a1-3)]GlcNAc(b1-2)Man(a1-3)[Fuc(a1-2)Gal(b1-4)[Fuc(a1-3)]GlcNAc(b1-2)Man(a1-6)]Man(b1-4)GlcNAc(b1-4)GlcNAc
# In short: as §1
# [15] = target: Fuc(a1-2)Gal(b1-4)[Fuc(a1-3)]GlcNAc(b1-3)Gal(b1-4)[Fuc(a1-3)]GlcNAc
# In short: as §1
# [16] = target: Fuc(a1-2)Gal(b1-4)[Fuc(a1-3)]GlcNAc(b1-3)Gal(b1-4)[Fuc(a1-3)]GlcNAc(b1-3)Gal(b1-4)[Fuc(a1-3)]GlcNAc
# In short: as §1
# Fuc(a1-2)Gal6S(b1-4)Glc = target: Fuc(a1-2)Gal6S(b1-4)Glc
# In short: as §1
# [17] = target: Fuc(a1-2)Gal6S(b1-4)Glc6S
# In short: as §1
# [18] = target: Fuc(a1-2)Gal6S(b1-4)GlcNAc
# In short: as §1
# Fuc(a1-2)[Gal(a1-3)]Gal = target: Fuc(a1-2)[Gal(a1-3)]Gal
# In short: as §1
# [19] = target: Fuc(a1-2)[Gal(a1-3)]Gal(b1-3)GlcNAc
# In short: as §1
# [20] = target: Fuc(a1-2)[Gal(a1-3)]Gal(b1-3)GlcNAc(b1-2)Man(a1-3)[Fuc(a1-2)[Gal(a1-3)]Gal(b1-3)GlcNAc(b1-2)Man(a1-6)]Man(b1-4)GlcNAc(b1-4)GlcNAc
# In short: as §1
# [21] = target: Fuc(a1-2)[Gal(a1-3)]Gal(b1-4)Glc
# In short: as §1
# [22] = target: Fuc(a1-2)[Gal(a1-3)]Gal(b1-4)GlcNAc
# In short: as §1
binder,measurement,setting,value
B1,glycan array binding signal (z-score),Fuc(a1-2)Gal,-0.143
same,glycan array binding signal (z-score),Fuc(a1-2)Gal(b1-3)GalNAc,-0.239
same,glycan array binding signal (z-score),[1],-0.258
same,glycan array binding signal (z-score),[2],0.314
same,glycan array binding signal (z-score),[3],-0.268
same,glycan array binding signal (z-score),Fuc(a1-2)Gal(b1-3)GlcNAc,-0.264
same,glycan array binding signal (z-score),[4],0.132
same,glycan array binding signal (z-score),[5],-0.256
same,glycan array binding signal (z-score),[6],-0.267
same,glycan array binding signal (z-score),[7],-0.273
same,glycan array binding signal (z-score),[8],-0.204
same,glycan array binding signal (z-score),Fuc(a1-2)Gal(b1-4)Glc,-0.042
same,glycan array binding signal (z-score),Fuc(a1-2)Gal(b1-4)Glc6S,0.018
same,glycan array binding signal (z-score),Fuc(a1-2)Gal(b1-4)GlcNAc,-0.223
same,glycan array binding signal (z-score),[9],-0.113
same,glycan array binding signal (z-score),[10],-0.27
same,glycan array binding signal (z-score),[11],-0.218
same,glycan array binding signal (z-score),[12],-0.262
same,glycan array binding signal (z-score),[13],-0.247
same,glycan array binding signal (z-score),[14],0.041
same,glycan array binding signal (z-score),[15],-0.231
same,glycan array binding signal (z-score),[16],-0.25
same,glycan array binding signal (z-score),Fuc(a1-2)Gal6S(b1-4)Glc,-0.255
same,glycan array binding signal (z-score),[17],-0.172
same,glycan array binding signal (z-score),[18],-0.264
same,glycan array binding signal (z-score),Fuc(a1-2)[Gal(a1-3)]Gal,-0.252
same,glycan array binding signal (z-score),[19],-0.253
same,glycan array binding signal (z-score),[20],-0.07
same,glycan array binding signal (z-score),[21],-0.272
same,glycan array binding signal (z-score),[22],-0.271
